{"source": "PubChem BioAssay AID1460", "about": "(National Center for Advancing Translational Sciences (NCATS), 2008)", "note": "About 5,800 (2.1%) of roughly 270,000 compounds were called active. Inconclusive means that the source gave no clear call. Such entries were picked first, then a sample of the others. The call rests on the fitted dose curve; in most records, active means well fitted inhibition curve with a large enough effect; inconclusive means small, poorly fitted or top-dose-only effect; inactive means flat fitted curve, though single readings scatter. Where the call is inconclusive, the potency comes from a doubtful curve fit. Potency means the concentration at half of the fitted maximal effect; tags describe the fitted curve by direction and shape.", "data": [{"molecular_target": "Microtubule-associated protein tau (Homo sapiens) (UniProt P10636)", "sequence (P10636 whole entry, looked up, the tested form may be a part)": "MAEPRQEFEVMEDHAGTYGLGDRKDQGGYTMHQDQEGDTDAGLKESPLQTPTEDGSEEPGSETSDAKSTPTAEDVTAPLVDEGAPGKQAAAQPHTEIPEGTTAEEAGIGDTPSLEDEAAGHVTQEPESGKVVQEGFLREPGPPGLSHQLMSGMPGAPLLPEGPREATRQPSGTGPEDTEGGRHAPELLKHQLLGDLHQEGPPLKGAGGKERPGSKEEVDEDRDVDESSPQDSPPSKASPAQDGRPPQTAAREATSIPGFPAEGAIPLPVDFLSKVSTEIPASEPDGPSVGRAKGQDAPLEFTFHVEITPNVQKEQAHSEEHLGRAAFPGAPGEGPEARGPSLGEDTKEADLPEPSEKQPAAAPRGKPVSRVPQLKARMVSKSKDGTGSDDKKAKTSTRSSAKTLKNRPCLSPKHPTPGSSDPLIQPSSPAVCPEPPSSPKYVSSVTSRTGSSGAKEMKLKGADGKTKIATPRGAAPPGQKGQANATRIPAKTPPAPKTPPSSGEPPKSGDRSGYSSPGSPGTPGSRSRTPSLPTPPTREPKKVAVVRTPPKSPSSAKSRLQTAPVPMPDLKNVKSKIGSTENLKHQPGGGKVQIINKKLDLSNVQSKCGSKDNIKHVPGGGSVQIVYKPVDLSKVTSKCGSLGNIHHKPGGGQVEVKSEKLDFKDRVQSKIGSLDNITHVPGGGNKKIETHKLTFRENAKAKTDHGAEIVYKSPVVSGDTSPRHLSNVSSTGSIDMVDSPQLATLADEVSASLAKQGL", "experiment": "qHTS for Inhibitors of Tau Fibril Formation, Thioflavin T Binding; further: nearly all actives have a fitted effect of over 55% in size", "conditions": "recombinant tau K18 P301L (four-repeat tau fragment), heparin-induced fibrillization, ThT fluorescence; series mostly up to 57.4 µM", "in_short": "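Heparin-induced (20 uM) aggregation of recombinant human K18 P301L tau, 15 uM unlabeled with 0.24 uM labeled, pH 7 acetate buffer, 6 hr at 37 C with compound. Fibrils quantified by 30 uM ThT fluorescence after 1 hr ambient incubation.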", "values": [{"molecule": "CN(C)c1nc(OCCNC(=O)Nc2ccccc2)nc(N(C)C)n1", "Potency": "inactive"}, {"molecule": "CCCCCCCCCCCC(CC1OC(=O)C1CCCCCC)OC(=O)C(CC(C)C)NC=O", "note": "(configuration not stated)", "Potency": "inconclusive: 20 µM [inhibitor, partial curve]"}, {"molecule": "Cc1cccc(NCC(=O)N/N=C/c2cccc(Br)c2)c1", "Potency": "inconclusive: 10 µM [inhibitor, partial curve]"}, {"molecule": "NC1=NC(=O)/C(=C/c2cn(CCC(=O)O)nc2-c2ccc(Cl)cc2)S1", "Potency": "inactive"}, {"molecule": "COc1ccc2c(c1)S/C(=C\\C(=O)c1ccncc1)N2C", "Potency": "inconclusive: 0.794 µM [inhibitor, partial curve, poor fit]"}, {"molecule": "COCC(=O)OCC(=O)c1cc(C)n(-c2ccc(Br)cc2)c1C", "Potency": "inactive"}, {"molecule": "CCc1ccc(OCC(=O)Nc2ccc3oc(-c4ccc(OC)cc4)nc3c2)cc1", "Potency": "inconclusive: 0.251 µM [inhibitor, full curve, poor fit]"}, {"molecule": "CCC(=O)Nc1cccc(C(=O)/C=C/c2cc(Br)ccc2OC)c1", "Potency": "inconclusive: 11.2 µM [inhibitor, partial curve]"}, {"molecule": "CCc1ccc(OCC(=O)Nc2ccc(Cl)c(-c3nc4ncccc4o3)c2)cc1", "Potency": "inactive"}, {"molecule": "O=c1[nH]c2cc3ccccc3cc2nc1C(F)(F)F", "Potency": "inconclusive: 10 µM [inhibitor, partial curve]"}, {"molecule": "Cc1ccc(S(=O)(=O)c2nc(C(C)(C)C)oc2N2CCOCC2)cc1", "Potency": "inconclusive: 25.1 µM [inhibitor, single point]"}, {"molecule": "Cc1ccc(OCc2cc(=O)n3cc(C)sc3n2)c(C)c1", "Potency": "inconclusive: 1.26 µM [inhibitor, full curve]"}, {"molecule": "O=C(CCN1CCC(c2ccc(Cl)s2)=N1)c1ccc(Cl)s1", "Potency": "inconclusive: 0.631 µM [inhibitor, full curve]"}, {"molecule": "O=C(NCCc1ccccc1)C1CCN(Cc2ccccc2F)CC1", "Potency": "inactive"}, {"molecule": "O=C(O)c1ccc(N/N=C/c2ccc(-c3ccc(Cl)cc3Cl)o2)cc1", "Potency": "inconclusive: 10 µM [inhibitor, partial curve]"}, {"molecule": "CCC(=O)Nc1nc(C)c(-c2csc(Nc3ccccn3)n2)s1", "Potency": "active: 14.1 µM"}, {"molecule": "CN=c1scc(-c2ccc(OC)cc2)n1/N=C(\\C)c1cccnc1", "Potency": "active: 11.2 µM"}, {"molecule": "c1cnc2c(OCc3nc4ccccc4[nH]3)cccc2c1", "Potency": "inconclusive: 12.6 µM [inhibitor, single point]"}, {"molecule": "Cc1nn2c(-c3cccnc3)ccnc2c1-c1ccccc1", "Potency": "inconclusive: 25.1 µM [inhibitor, single point]"}, {"molecule": "CC(/C=N/NC(=O)c1cnccn1)=C\\c1ccco1", "Potency": "inconclusive: 4.47 µM [inhibitor, single point]"}, {"molecule": "Cc1ccc(C(=O)CSc2nnc(CNc3nc(-c4ccccc4)cs3)n2C)cc1", "Potency": "inconclusive: 14.1 µM [inhibitor, partial curve, poor fit]"}, {"molecule": "O=C(CSc1nc2ccccc2[nH]1)NC1CCCC1", "Potency": "inactive"}, {"molecule": "O=C(N/N=C/c1ccc2nccnc2c1)c1ccc(Br)cc1", "Potency": "inconclusive: 4.47 µM [inhibitor, partial curve]"}, {"molecule": "N/C(=N/OC(=O)c1ccccc1Cl)c1ncc([N+](=O)[O-])s1", "Potency": "inconclusive: 10 µM [inhibitor, partial curve]"}, {"molecule": "O=C1NCC2=C1C(c1ccccc1)Nc1ccccc1N2", "note": "(configuration not stated)", "Potency": "inconclusive: 10 µM [inhibitor, partial curve]"}, {"molecule": "CCOC(=O)C1=C(c2ccccc2)O/C(=C(/C#N)C(F)(F)F)S1", "Potency": "active: 15.8 µM"}, {"molecule": "CN(C)/C=C/C(=O)c1ccc(-n2cccc2)cc1", "Potency": "inconclusive: 31.6 µM [inhibitor, single point]"}, {"molecule": "O=C1CCCCCN1CP(=O)(O)CN1CCCCCC1=O", "Potency": "inactive"}, {"molecule": "COc1ccc(-c2csc(N3CCOCC3)n2)cc1OC", "Potency": "inconclusive: 25.1 µM [inhibitor, partial curve]"}, {"molecule": "Cc1noc(NS(=O)(=O)c2ccc(N/C=C\\C(=O)c3cccs3)cc2)c1C", "Potency": "inconclusive: 14.1 µM [inhibitor, partial curve]"}, {"molecule": "CCc1ccc(/C=c2\\s/c(=C\\C(=O)C(C)(C)C)[nH]c2=O)cc1", "Potency": "inconclusive: 12.6 µM [inhibitor, partial curve]"}, {"molecule": "Cc1ccc(C)c(N2CCN(C(=O)C3CCN(S(=O)(=O)c4cccc5nsnc45)CC3)CC2)c1", "Potency": "inconclusive: 0.398 µM [inhibitor, full curve]"}, {"molecule": "Cc1cc(-c2nc3ncccc3o2)ccc1NC(=O)COc1cc(C)c(Cl)c(C)c1", "Potency": "inconclusive: 12.6 µM [inhibitor, partial curve]"}, {"molecule": "O=C(Nc1nc2ccccc2n1CCN1CCCCC1)c1ccco1", "Potency": "inactive"}, {"molecule": "N#CCSc1ncnc2ccccc12", "Potency": "inconclusive: 28.2 µM [inhibitor, single point]"}, {"molecule": "CCCCC(=O)N/N=C/c1ccc(N2CCOCC2)c([N+](=O)[O-])c1", "Potency": "inconclusive: 25.1 µM [inhibitor, single point]"}, {"molecule": "CN1CCN(C2=Cc3ccc(Cl)cc3Sc3ccc(F)cc32)CC1", "Potency": "inconclusive: 28.2 µM [inhibitor, single point]"}, {"molecule": "CCC1=NN(C(=O)c2ccc(Br)cc2)C(O)(c2ccccc2)C1", "note": "(configuration not stated)", "Potency": "inconclusive: 14.1 µM [inhibitor, partial curve]"}, {"molecule": "CCN(Cc1ccccc1)S(=O)(=O)c1ccc2[nH]c3c(c2c1)CCCCC3", "Potency": "inactive"}, {"molecule": "O=C(NC1CC1)c1ccc2c(Cl)c3c(nc2c1)CCCC3", "Potency": "inconclusive: 12.6 µM [inhibitor, partial curve, poor fit]"}, {"molecule": "Cc1ccc(-n2ncc3c(N4CCCCCC4)ncnc32)cc1C", "Potency": "inconclusive: 5.01 µM [inhibitor, partial curve, poor fit]"}, {"molecule": "O=C(COc1ccccc1)N1CCN(c2ncnc3c2cnn3-c2ccccc2)CC1", "Potency": "inactive"}, {"molecule": "CC(C)(C)c1ccc(C(=O)Nc2cnccn2)cc1", "Potency": "inconclusive: 12.6 µM [inhibitor, partial curve]"}, {"molecule": "Cc1cc(NC(=O)c2sccc2C)n(-c2nc3ccccc3[nH]2)n1", "Potency": "inconclusive: 17.8 µM [inhibitor, partial curve]"}, {"molecule": "O=[N+]([O-])c1ccc(Oc2cccc(F)c2)c2ccncc12", "Potency": "inconclusive: 25.1 µM [inhibitor, partial curve]"}, {"molecule": "CCN(CC)C(=O)c1sc(NC(=O)c2ccncc2)c(C(=O)OC)c1C", "Potency": "inconclusive: 39.8 µM [inhibitor, single point]"}, {"molecule": "CCCCCn1c(Sc2ccccc2)nc2c1c(=O)[nH]c(=O)n2C", "Potency": "inactive"}, {"molecule": "Cc1ccc(-c2cc(C(=O)Nc3ccc(S(=O)(=O)Nc4onc(C)c4C)cc3)c3ccccc3n2)cc1", "Potency": "inconclusive: 28.2 µM [inhibitor, single point]"}, {"molecule": "CC1CCC2(CC1)NC(=S)N(c1ccccc1)N2", "note": "(configuration not stated)", "Potency": "inconclusive: 31.6 µM [inhibitor, single point]"}, {"molecule": "Clc1cccc(Nc2ncnc3c2cnn3-c2ccccc2)c1", "Potency": "inconclusive: 11.2 µM [activator, partial curve]"}, {"molecule": "CCn1nc(C(=O)OCC(=O)c2c[nH]c3ccccc23)c2ccccc2c1=O", "Potency": "inconclusive: 31.6 µM [inhibitor, single point]"}, {"molecule": "COc1ccc(CSCCN)cc1Cl", "Potency": "inactive"}, {"molecule": "COc1ccccc1CNC(=O)c1ccc2c(c1)N(Cc1ccc(C)cc1)CCS2", "Potency": "inactive"}, {"molecule": "O=C(CSc1nnc(-c2ccco2)o1)NC(=O)C1COc2ccccc2O1", "note": "(configuration not stated)", "Potency": "inconclusive: 44.7 µM [inhibitor, single point]"}, {"molecule": "Cn1cc(CNC(=O)/C=C/c2ccc(Cl)cc2)cn1", "Potency": "inactive"}, {"molecule": "COc1cccc(C2CC(c3ccccc3OC)n3ncnc3N2)c1", "note": "(configuration not stated)", "Potency": "inactive"}, {"molecule": "Cc1cc(C)n(/N=C/c2cccs2)c(=O)c1C#N", "Potency": "inactive"}, {"molecule": "Cc1oc(-c2ccccc2F)nc1CSCC(=O)NCCc1ccccc1", "Potency": "inconclusive: 39.8 µM [inhibitor, single point]"}, {"molecule": "CCC(Oc1ccccc1)C(=O)Nc1ccc(OCc2cc(=O)n3ccc(C)cc3n2)cc1", "note": "(configuration not stated)", "Potency": "inactive"}, {"molecule": "Fc1ccc(-c2cc(-c3ccccc3)nc(-n3cccn3)n2)cc1", "Potency": "inconclusive: 12.6 µM [inhibitor, partial curve]"}, {"molecule": "N=c1c2c(-c3ccccc3)c(-c3ccccc3)oc2ncn1CCN1CCOCC1", "Potency": "inconclusive: 39.8 µM [inhibitor, single point]"}, {"molecule": "COc1ccc(N2CCN(C(=O)CSc3nnc(NC(=O)C4CCC4)s3)CC2)cc1", "Potency": "inconclusive: 22.4 µM [inhibitor, partial curve, poor fit]"}, {"molecule": "O=S(=O)(NCCc1nnc2ccc(SCc3c(F)cccc3Cl)nn12)c1ccccc1", "Potency": "inactive"}, {"molecule": "COCCNC(=O)NC(=O)COC(=O)c1ccc2[nH]c3c(c2c1)CCCC3", "Potency": "inconclusive: 15.8 µM [inhibitor, partial curve]"}, {"molecule": "CCOC(=O)c1c(NC(=O)c2ccco2)n(C2CCCCC2)c2nc3ccccc3nc12", "Potency": "active: 17.8 µM"}, {"molecule": "Cc1cccc(NC(=O)c2sc(NC(=O)c3ccco3)c(C#N)c2C)c1C", "Potency": "inconclusive: 3.55 µM [inhibitor, full curve]"}, {"molecule": "CNS(=O)(=O)c1cn(CC(=O)N2CCN(c3cccc(Cl)c3)CC2)cc1S(=O)(=O)NC", "Potency": "inactive"}, {"molecule": "O=C(NNC(=S)Nc1ccc(Cl)cc1Cl)c1ccncc1", "Potency": "inactive"}, {"molecule": "Cc1ccc(/C=C2\\C(=O)ON=C2c2ccccc2)o1", "Potency": "inconclusive: 10 µM [inhibitor, partial curve]"}, {"molecule": "Cc1ccc(C(=O)c2ccccc2C(=O)OCC(=O)Nc2ccc(SC(F)F)cc2)cc1", "Potency": "inactive"}, {"molecule": "Cc1nc(N2CCOCC2)nc(N2CCC(C)CC2)c1[N+](=O)[O-]", "Potency": "inconclusive: 22.4 µM [inhibitor, partial curve]"}, {"molecule": "Cc1cc[n+](-c2[nH]c(=O)sc2/C=N/N=C(\\[O-])CCn2c3ccccc3c3ccccc32)cc1", "Potency": "active: 28.2 µM"}]}]}
